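Cells were grown in 96-well plates and exposed to each compound for 48 hours at five concentrations; endpoints were interpolated linearly between bracketing concentrations, or set to the highest concentration if not reached. At the GI50, growth is halved.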 A number of entries come with more than one value. Only these are listed. There may be further records. For part of these data: The values listed for one entry are repeats across runs, samples, wells, individuals or studies. Marks in square brackets tell the records apart. A, B and so on number the origins entry by entry.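 Definition used: TGI = concentration required for complete inhibition of growth.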 For part of these data: The tests behind the records often covered other concentration ranges, not given here; a value can be the end of its range.
What was measured:
Experiment in all cases: NCI tumour cell line growth inhibition, 48 h
A498 renal = system: A498 renal
CCRF-CEM leukemia = system: CCRF-CEM leukemia
COLO 205 colon = system: COLO 205 colon
EKVX NSCLC = system: EKVX NSCLC
HCC-2998 colon = system: HCC-2998 colon
HCT-116 colon = system: HCT-116 colon
HL-60(TB) leukemia = system: HL-60(TB) leukemia
HOP-62 NSCLC = system: HOP-62 NSCLC
HOP-92 NSCLC = system: HOP-92 NSCLC
HT29 colon = system: HT29 colon
IGROV1 ovarian = system: IGROV1 ovarian
K-562 leukemia = system: K-562 leukemia
KM12 colon = system: KM12 colon
LOX IMVI melanoma = system: LOX IMVI melanoma
MALME-3M melanoma = system: MALME-3M melanoma
MCF7 breast = system: MCF7 breast
NCI-H226 lung = system: NCI-H226 lung
NCI-H23 lung = system: NCI-H23 lung
NCI-H460 lung = system: NCI-H460 lung
NCI-H522 lung = system: NCI-H522 lung
NCI/ADR-RES ovarian = system: NCI/ADR-RES ovarian
OVCAR-3 ovarian = system: OVCAR-3 ovarian
OVCAR-4 ovarian = system: OVCAR-4 ovarian
OVCAR-5 ovarian = system: OVCAR-5 ovarian
OVCAR-8 ovarian = system: OVCAR-8 ovarian
RPMI-8226 leukemia = system: RPMI-8226 leukemia
RXF 393 renal = system: RXF 393 renal
SF-295 CNS = system: SF-295 CNS
SF-539 CNS = system: SF-539 CNS
SK-MEL-28 melanoma = system: SK-MEL-28 melanoma
SK-MEL-5 melanoma = system: SK-MEL-5 melanoma
SK-OV-3 ovarian = system: SK-OV-3 ovarian
SN12C renal = system: SN12C renal
SNB-75 CNS = system: SNB-75 CNS
SW-620 colon = system: SW-620 colon
UACC-62 melanoma = system: UACC-62 melanoma
UO-31 renal = system: UO-31 renal
ACHN renal = system: ACHN renal
T-47D breast = system: T-47D breast

## C/C=C(\C)c1cc(=O)c2c(C)cc3c(c2o1)C(=O)c1c(O)c(C2CC(C)(N(C)C)C(O)C(C)O2)cc(C2CC(N(C)C)C(O)C(C)O2)c1C3=O (configuration not stated)
A498 renal
  GI50: 198 nM [sample A, mean of 2 tests] and 5.97 µM [sample B, 1 test]
CCRF-CEM leukemia
  GI50: 49.3 nM [sample A, mean of 2 tests] and 2.17 µM [sample B, mean of 2 tests]
COLO 205 colon
  GI50: 224 nM [sample A, mean of 2 tests] and 3.21 µM [sample B, 1 test]
EKVX NSCLC
  GI50: 340 nM [sample A, mean of 2 tests] and 3.73 µM [sample B, 1 test]
HCC-2998 colon
  GI50: 130 nM [sample A, 1 test] and 2.85 µM [sample B, mean of 2 tests]
  TGI: 302 nM [sample A, 1 test] and 11.2 µM [sample B, mean of 2 tests]
HCT-116 colon
  GI50: 48.2 nM [sample A, mean of 2 tests] and 537 nM [sample B, 1 test]
HL-60(TB) leukemia
  GI50: 81.8 nM [sample A, 1 test] and 1.48 µM [sample B, 1 test]
HOP-62 NSCLC
  GI50: 116 nM [sample A, 1 test] and 4.53 µM [sample B, mean of 2 tests]
  TGI: 303 nM [sample A, 1 test] and 14.4 µM [sample B, mean of 2 tests]
HOP-92 NSCLC
  TGI: 804 nM [sample A] and 9.41 µM [sample B]
HT29 colon
  GI50: 81.8 nM [sample A, mean of 2 tests] and 1.34 µM [sample B, 1 test]
IGROV1 ovarian
  GI50: 289 nM [sample A, mean of 2 tests] and 4.35 µM [sample B, mean of 2 tests]
K-562 leukemia
  GI50: 76.2 nM [sample A, mean of 2 tests] and 1.96 µM [sample B, mean of 2 tests]
KM12 colon
  GI50: 208 nM [sample A, mean of 2 tests] and 2.42 µM [sample B, mean of 2 tests]
LOX IMVI melanoma
  GI50: 68.6 nM [sample A, mean of 2 tests] and 1.8 µM [sample B, 1 test]
  TGI: 461 nM [sample A, mean of 2 tests] and 7.43 µM [sample B, 1 test]
MALME-3M melanoma
  GI50: 247 nM [sample A, mean of 2 tests] and 3.46 µM [sample B, mean of 2 tests]
  TGI: 731 nM [sample A, mean of 2 tests] and 13.6 µM [sample B, mean of 2 tests]
MCF7 breast
  GI50: 33.4 nM [sample A, mean of 2 tests] and 853 nM [sample B, 1 test]
NCI-H226 lung
  GI50: 210 nM [sample A, mean of 2 tests] and 2.2 µM [sample B, 1 test]
  TGI: 709 nM [sample A, mean of 2 tests] and 8.76 µM [sample B, 1 test]
NCI-H23 lung
  GI50: 165 nM [sample A, mean of 2 tests] and 2.37 µM [sample B, mean of 2 tests]
NCI-H460 lung
  GI50: < 16 nM [sample A, mean of 2 tests] and 340 nM [sample B, mean of 2 tests]
  TGI: 214 nM [sample A, mean of 2 tests] and 4.29 µM [sample B, mean of 2 tests]
NCI-H522 lung
  GI50: 165 nM [sample A, 1 test] and 2.32 µM [sample B, mean of 2 tests]
  TGI: 363 nM [sample A, 1 test] and 8.25 µM [sample B, mean of 2 tests]
NCI/ADR-RES ovarian
  TGI: 3.66 µM [sample A, mean of 2 tests] and 43 µM [sample B, 1 test]
OVCAR-3 ovarian
  GI50: 214 nM [sample A, mean of 2 tests] and 6.31 µM [sample B, mean of 2 tests]
  TGI: 1.33 µM [sample A, mean of 2 tests] and 22.1 µM [sample B, mean of 2 tests]
OVCAR-4 ovarian
  GI50: 231 nM [sample A, mean of 2 tests] and 2.85 µM [sample B, 1 test]
OVCAR-5 ovarian
  TGI: 2.91 µM [sample A, mean of 2 tests] and 31.2 µM [sample B, mean of 2 tests]
OVCAR-8 ovarian
  GI50: 70.2 nM [sample A, mean of 2 tests] and 2.4 µM [sample B, mean of 2 tests]
  TGI: 424 nM [sample A, mean of 2 tests] and 21.2 µM [sample B, mean of 2 tests]
RPMI-8226 leukemia
  GI50: 204 nM [sample A, 1 test] and 3.53 µM [sample B, mean of 2 tests]
  TGI: 809 nM [sample A, 1 test] and 52.9 µM [sample B, mean of 2 tests]
RXF 393 renal
  TGI: 325 nM [sample A, 1 test] and 5 µM [sample B, mean of 2 tests]
SF-295 CNS
  GI50: 224 nM [sample A, mean of 2 tests] and 2.26 µM [sample B, mean of 2 tests]
  TGI: 854 nM [sample A, mean of 2 tests] and 19.7 µM [sample B, mean of 2 tests]
SF-539 CNS
  GI50: 146 nM [sample A, mean of 2 tests] and 3.59 µM [sample B, 1 test]
  TGI: 354 nM [sample A, mean of 2 tests] and 15.1 µM [sample B, 1 test]
SK-MEL-28 melanoma
  GI50: 210 nM [sample A, mean of 2 tests] and 4.54 µM [sample B, mean of 2 tests]
  TGI: 491 nM [sample A, mean of 2 tests] and 16.4 µM [sample B, mean of 2 tests]
SK-MEL-5 melanoma
  GI50: 181 nM [sample A, mean of 2 tests] and 2.86 µM [sample B, mean of 2 tests]
  TGI: 468 nM [sample A, mean of 2 tests] and 12.2 µM [sample B, mean of 2 tests]
SK-OV-3 ovarian
  GI50: 273 nM [sample A, mean of 2 tests] and 6.64 µM [sample B, mean of 2 tests]
  TGI: 3.56 µM [sample A, mean of 2 tests] and 88.8 µM [sample B, mean of 2 tests]
SN12C renal
  GI50: 235 nM [sample A, mean of 2 tests] and 3.07 µM [sample B, mean of 2 tests]
  TGI: 1.29 µM [sample A, mean of 2 tests] and > 51.4 µM [sample B, mean of 2 tests]
SNB-75 CNS
  GI50: 144 nM [sample A, mean of 2 tests] and 4.02 µM [sample B, mean of 2 tests]
  TGI: 310 nM [sample A, mean of 2 tests] and 18.4 µM [sample B, mean of 2 tests]
SW-620 colon
  GI50: 73.7 nM [sample A, 1 test] and 1.99 µM [sample B, 1 test]
UACC-62 melanoma
  GI50: 144 nM [sample A, mean of 2 tests] and 4.34 µM [sample B, 1 test]
  TGI: 408 nM [sample A, mean of 2 tests] and 29.8 µM [sample B, 1 test]
UO-31 renal
  TGI: 2.22 µM [sample A, mean of 2 tests] and > 58 µM [sample B, mean of 2 tests]

## COC1C(O)C(C)OC(OC2C(Oc3cccc4c(O)c5c(=O)oc6ccc(C)c7c(=O)oc(c34)c5c67)OC(C)C3O[C@H](c4ccccc4)OC32)C1O (some centres not stated)
ACHN renal
  TGI: 143 nM and 1.81 µM
T-47D breast
  TGI: 975 nM and 14.7 µM

Reference: PubChem BioAssay (NCI)
